Measurements reported in PubChem BioAssay AID588689 (Southern Research Specialized Biocontainment Screening …, 2011).
The whole screen tested about 340,000 compounds, of which about 1,000 (0.29%) were called active. Inconclusive means that the source gave no clear call. Such entries were picked first, then a sample of the others. No stated cut-off is given here; in the data, inconclusive means inhibition above about 29% without an active follow-up result; inactive means below that.

What follows are compounds tested against Genome polyprotein (Dengue virus type 2 (strain 16681-PDK53)) (UniProt P29991) (assay: Dengue-2 NS5 methyltransferase inhibitors, primary screen, biochemical, confirmation dose response (AID 588689)). Details: Dengue-2 NS5 methyltransferase capping enzyme assay, at 25 µM, active compounds read high.
UniProt P29991, sequence (P29991 whole entry, looked up): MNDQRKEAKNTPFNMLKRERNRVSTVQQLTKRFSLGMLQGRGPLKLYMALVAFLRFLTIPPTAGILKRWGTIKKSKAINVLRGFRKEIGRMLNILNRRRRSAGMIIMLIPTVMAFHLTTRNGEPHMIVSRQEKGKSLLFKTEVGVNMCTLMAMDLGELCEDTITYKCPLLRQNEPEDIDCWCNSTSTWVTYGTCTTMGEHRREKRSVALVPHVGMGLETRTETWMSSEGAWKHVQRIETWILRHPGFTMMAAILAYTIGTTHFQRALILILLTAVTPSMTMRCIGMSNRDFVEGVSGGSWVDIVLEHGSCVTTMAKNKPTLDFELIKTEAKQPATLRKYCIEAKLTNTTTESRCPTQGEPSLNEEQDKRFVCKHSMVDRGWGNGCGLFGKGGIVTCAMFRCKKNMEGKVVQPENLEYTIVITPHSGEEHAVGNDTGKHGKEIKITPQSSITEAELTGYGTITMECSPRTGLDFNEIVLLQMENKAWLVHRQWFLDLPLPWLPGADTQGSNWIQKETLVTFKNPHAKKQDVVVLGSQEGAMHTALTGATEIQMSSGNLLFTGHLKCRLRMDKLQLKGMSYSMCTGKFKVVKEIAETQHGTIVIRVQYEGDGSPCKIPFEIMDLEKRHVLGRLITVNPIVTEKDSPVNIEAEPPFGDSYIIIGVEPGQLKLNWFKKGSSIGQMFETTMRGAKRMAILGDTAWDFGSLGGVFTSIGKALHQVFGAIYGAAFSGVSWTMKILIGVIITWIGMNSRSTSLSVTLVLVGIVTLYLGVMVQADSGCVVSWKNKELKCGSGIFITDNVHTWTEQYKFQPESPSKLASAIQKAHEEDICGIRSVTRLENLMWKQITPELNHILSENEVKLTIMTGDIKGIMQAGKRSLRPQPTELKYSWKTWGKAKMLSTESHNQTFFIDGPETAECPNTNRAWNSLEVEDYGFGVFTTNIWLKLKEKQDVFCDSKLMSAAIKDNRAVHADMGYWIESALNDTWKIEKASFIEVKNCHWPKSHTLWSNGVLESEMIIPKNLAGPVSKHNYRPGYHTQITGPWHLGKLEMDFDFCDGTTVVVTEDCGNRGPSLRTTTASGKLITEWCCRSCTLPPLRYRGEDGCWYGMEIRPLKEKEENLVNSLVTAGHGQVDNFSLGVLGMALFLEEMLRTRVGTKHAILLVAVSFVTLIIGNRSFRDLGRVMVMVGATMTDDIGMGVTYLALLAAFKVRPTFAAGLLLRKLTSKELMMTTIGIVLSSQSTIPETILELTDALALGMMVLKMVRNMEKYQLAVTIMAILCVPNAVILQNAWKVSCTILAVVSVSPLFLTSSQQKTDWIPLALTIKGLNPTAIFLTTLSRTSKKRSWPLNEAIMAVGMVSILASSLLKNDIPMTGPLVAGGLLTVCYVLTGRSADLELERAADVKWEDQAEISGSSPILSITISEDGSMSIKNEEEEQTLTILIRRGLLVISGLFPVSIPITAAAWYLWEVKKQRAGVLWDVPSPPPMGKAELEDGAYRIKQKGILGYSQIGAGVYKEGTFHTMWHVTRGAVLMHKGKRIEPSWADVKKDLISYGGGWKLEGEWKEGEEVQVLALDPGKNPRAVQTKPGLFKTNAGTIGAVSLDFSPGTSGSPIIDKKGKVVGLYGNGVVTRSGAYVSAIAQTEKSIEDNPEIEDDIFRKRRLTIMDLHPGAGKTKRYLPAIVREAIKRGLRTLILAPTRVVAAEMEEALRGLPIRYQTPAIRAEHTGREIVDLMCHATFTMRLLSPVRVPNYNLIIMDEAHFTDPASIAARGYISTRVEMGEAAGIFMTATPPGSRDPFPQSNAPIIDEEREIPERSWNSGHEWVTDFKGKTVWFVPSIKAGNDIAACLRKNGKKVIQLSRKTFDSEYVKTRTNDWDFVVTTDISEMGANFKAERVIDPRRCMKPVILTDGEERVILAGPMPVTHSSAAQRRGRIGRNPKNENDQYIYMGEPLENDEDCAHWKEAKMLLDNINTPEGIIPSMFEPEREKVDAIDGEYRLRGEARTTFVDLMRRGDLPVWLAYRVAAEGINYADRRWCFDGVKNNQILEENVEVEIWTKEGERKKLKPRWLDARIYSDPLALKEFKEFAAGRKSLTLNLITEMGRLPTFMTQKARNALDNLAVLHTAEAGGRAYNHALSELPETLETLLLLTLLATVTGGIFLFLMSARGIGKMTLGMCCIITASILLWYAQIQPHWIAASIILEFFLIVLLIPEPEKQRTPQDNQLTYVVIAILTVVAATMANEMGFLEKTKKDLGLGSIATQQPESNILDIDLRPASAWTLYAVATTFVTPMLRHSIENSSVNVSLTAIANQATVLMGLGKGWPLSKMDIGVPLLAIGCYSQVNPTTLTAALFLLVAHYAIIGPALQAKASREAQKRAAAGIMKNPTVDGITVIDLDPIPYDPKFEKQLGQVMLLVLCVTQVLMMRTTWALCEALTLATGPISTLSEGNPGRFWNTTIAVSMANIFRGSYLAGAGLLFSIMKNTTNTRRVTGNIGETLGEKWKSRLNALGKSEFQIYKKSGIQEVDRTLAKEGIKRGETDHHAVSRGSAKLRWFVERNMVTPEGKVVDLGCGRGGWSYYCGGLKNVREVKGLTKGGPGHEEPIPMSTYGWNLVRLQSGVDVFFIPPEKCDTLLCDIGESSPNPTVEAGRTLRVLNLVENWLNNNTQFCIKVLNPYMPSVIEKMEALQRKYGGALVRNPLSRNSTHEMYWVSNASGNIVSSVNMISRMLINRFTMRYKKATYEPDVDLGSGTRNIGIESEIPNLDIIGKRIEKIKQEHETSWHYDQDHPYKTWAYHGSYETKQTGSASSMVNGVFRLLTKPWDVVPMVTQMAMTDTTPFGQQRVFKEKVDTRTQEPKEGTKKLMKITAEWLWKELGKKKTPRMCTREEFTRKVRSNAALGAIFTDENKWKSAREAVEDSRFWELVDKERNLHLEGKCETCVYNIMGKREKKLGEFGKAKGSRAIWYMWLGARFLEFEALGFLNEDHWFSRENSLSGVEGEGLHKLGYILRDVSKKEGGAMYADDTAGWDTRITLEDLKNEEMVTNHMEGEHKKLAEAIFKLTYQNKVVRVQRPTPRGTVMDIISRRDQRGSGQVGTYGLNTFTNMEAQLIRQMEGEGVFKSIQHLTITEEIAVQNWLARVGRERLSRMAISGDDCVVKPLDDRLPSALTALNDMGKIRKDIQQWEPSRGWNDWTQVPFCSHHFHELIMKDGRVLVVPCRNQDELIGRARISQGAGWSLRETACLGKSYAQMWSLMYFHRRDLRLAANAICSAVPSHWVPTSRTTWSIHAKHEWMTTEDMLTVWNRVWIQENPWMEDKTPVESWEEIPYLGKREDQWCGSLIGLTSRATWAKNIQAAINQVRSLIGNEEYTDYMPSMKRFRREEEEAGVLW

For `CCCCC1=CC2=C(c3ccco3)C(=O)C(C)(OC(=O)c3ccc(OC)cc3)C(=O)C2=CN1C1CCCCC1` (stereo not given), which inhibition is on record?
The inhibition was inconclusive: 36.4%.

With `Cc1cccc(C)c1NC(=O)C(c1ccc([N+](=O)[O-])cc1)N1CCCCC1` (stereo not given) as the compound, how does the inhibition read?
Its inhibition is inactive: -3.23%.

With `COc1ccc2c(-c3ccccc3)cc(SCC(N)=O)nc2c1` as the compound, how does the inhibition read?
Its inhibition is inconclusive: 50.8%.

How did the inhibition turn out when `CCN1CC=C2C(C1)C(c1ccc(Cl)s1)C(C#N)=C(N)C2(C#N)C#N` (stereo not given) was run?
Its inhibition is inconclusive: 49.2%.

How did the inhibition turn out when `COc1ccc(OC)c(-c2cc(C(=O)Nc3sc4c(c3C#N)CCC(C)C4)c3ccccc3n2)c1` (stereo not given) was run?
The inhibition was inactive: -5.61%.

Which inhibition does the source give for `COc1cc(CC(=O)O)ccc1OCc1ccccc1` here?
Its inhibition is inactive: -5.48%.

How did the inhibition turn out when `Cc1cc(NC(=O)CN2C(=O)/C(=C/c3ccccc3F)SC2=S)no1` was run?
The inhibition was inactive: 2.68%.

`Cc1cccc(/C=N/n2c(C)cc(C)c(C#N)c2=O)c1` was tested. Which inhibition did it give?
The inhibition was inactive: -3.26%.

Which inhibition does the source give for `Nc1ccc(N)c(C(=O)O)c1` here?
The inhibition was inconclusive: 86.7%.

For `COCCCNc1c2c3c(cccc3[nH]c1=O)C(=O)c1ccccc1-2`, which inhibition is on record?
The inhibition was inconclusive: 137%.

`CCNc1cc(O)ccc1C` was tested. Which inhibition did it give?
Its inhibition is inconclusive: 40.1%.

Which inhibition does the source give for `O=C(NN=Cc1c(O)ccc2ccccc12)c1ccncc1` here?
The inhibition was inconclusive: 41.8%.

How did the inhibition turn out when `O=C(COC(=O)c1ccco1)NCc1ccccc1Cl` was run?
The inhibition was inactive: 3.03%.

Which inhibition does the source give for `Cc1coc(NC(=O)CSc2nc(-c3ccncc3)cc(C(F)(F)F)c2C#N)n1` here?
The inhibition was inconclusive: 114%.

Which inhibition does the source give for `COC(=O)CCC(=O)OC1(C)C(=O)C2=CN(Cc3ccc4c(c3)OCO4)C(c3ccc(OC)cc3)=CC2=C(Br)C1=O` (stereo not given) here?
Its inhibition is inconclusive: 30.4%.

`Cc1ccc(Cl)cc1NC(=O)CN1C(=O)NC2(CCCCCC2)C1=O` was tested. Which inhibition did it give?
Its inhibition is inactive: 3%.

How did the inhibition turn out when `CC1(C)O[C@@H]2[C@H](O1)[C@@H](CO)O[C@H]2n1cc(Br)c(=O)[nH]c1=O` was run?
Its inhibition is inactive: -17.6%.

How did the inhibition turn out when `COc1ccccc1NC(=O)/C(C#N)=C/c1cc([N+](=O)[O-])ccc1N1CCCC1` was run?
The inhibition was inconclusive: 58.9%.

With `CCc1ccc(/C=C2\SC(=S)N(CCCC(=O)Nc3ccc(C(=O)O)cc3)C2=O)cc1` as the compound, how does the inhibition read?
Its inhibition is inactive: 17.8%.

`COc1ccccc1NCC(=O)N/N=C/c1c(O)ccc2ccccc12` was tested. Which inhibition did it give?
The inhibition was inconclusive: 33.8%.

For `COc1cc(C(NC(C)=O)NC(C)=O)ccc1OCc1ccccc1`, which inhibition is on record?
Its inhibition is inactive: -12.5%.

How did the inhibition turn out when `COc1ccc(CN2CC(C(=O)NCCC(C)C)CC2=O)cc1` (stereo not given) was run?
The inhibition was inactive: 6.67%.

`COc1ccc(NS(=O)(=O)c2ccc(Cl)c(N)c2)cc1Br` was tested. Which inhibition did it give?
Its inhibition is inactive: -3.69%.

Which inhibition does the source give for `O=C(O)c1ccc(NC(=S)NC(=O)c2ccc(-c3ccc(Br)cc3)o2)cc1` here?
Its inhibition is inactive: -8.03%.

Which inhibition does the source give for `CCOc1ccc(S(=O)(=O)Nc2ccccc2SC)cc1` here?
The inhibition was inactive: 6.41%.
